# Source: the antibiotic and cytotoxicity screens of Wong et al. (2023)
# Some of the results follow.
# Test system: S. aureus RN4220
# Test: growth inhibition call (relative growth <= 0.2)
# Settings: 50 µM
row,Structure (SMILES),growth inhibition call
1,N[C@@H](c1ccccc1)[C@@H](N)c1ccccc1,inactive
2,NCC1(c2c(F)cc(F)cc2F)CC1,inactive
3,C=CCN1C[C@H]2CN(C(C)C)C[C@H]2C1=O,inactive
4,C1CN2CN3CCN(CN1C3)C2,inactive
5,CC(=CCn1c[n+](C)c2c(N)ncnc21)CCC1(C)C(C)CCC2(C)C(C)=CCCC21.[Cl-] (centres undefined),active
6,C[C@@H]1CC[C@@]2(OC1)O[C@H]1C[C@H]3[C@@H]4CC=C5C[C@@H](O[C@@H]6O[C@H](CO)[C@@H](O[C@@H]7O[C@@H](C)[C@H](O)[C@@H](O)[C@H]7O)[C@H](O)[C@H]6O[C@@H]6O[C@@H](C)[C@H](O)[C@@H](O)[C@H]6O)CC[C@]5(C)[C@H]4CC[C@]3(C)[C@H]1[C@@H]2C,inactive
7,CNC(C)(C)Cc1ccccc1.O=S(=O)(O)O,inactive
8,O=c1[nH]oc2c1CCNC2,inactive
9,CCN1CCN(c2nc(=O)cc(C)[nH]2)CC1,inactive
10,CC12C(=O)OC(=O)C1(C)C1CCC2O1 (centres undefined),inactive
11,C[C@@H]1CN([C@@H](C)CO)C(=O)CCCn2cc(nn2)CO[C@@H]1CN(C)C(=O)Oc1cccc2ccccc12,inactive
12,Cc1nc([N+](=O)[O-])c(N2CCNCC2)[nH]1,inactive
13,NCCCNCCSP(=O)(O)O,inactive
14,C[C@@H](N)Cc1cccc(O)c1,inactive
15,NC[C@@H](CC(=O)O)c1ccc(Cl)cc1,inactive
16,O=[N+]([O-])OC1COC2C(O[N+](=O)[O-])COC12 (centres undefined),inactive
17,CC(=O)O[C@H]1C(=O)[C@]2(C)[C@@H](O)C[C@H]3OC[C@@]3(OC(C)=O)[C@@H]2[C@H](OC(=O)c2ccccc2)[C@]2(O)C[C@H](O)C(C)=C1C2(C)C,inactive
18,CC(=O)OC1CC(OC(C)=O)C2(C)C(CC(OC(C)=O)C3(C)C2CCC2(C)C(c4ccoc4)C(=O)C4OC423)C1(C)C (centres undefined),inactive
19,CNCc1cccnc1,inactive
20,CCN(CC)C1CCCCC1,inactive

row,Structure (SMILES),growth inhibition call
1,CO[C@H]1[C@@H](O)[C@@H](C)O[C@H](O[C@H]2CC[C@@]3(C)[C@H]4CC[C@@]5(C)[C@@H](C6=CC(=O)OC6)CC[C@]5(O)[C@@H]4CC[C@]3(O)C2)[C@@H]1O,inactive
2,N[C@@]1(C(=O)O)CC[C@H](C(=O)O)C1.N[C@]1(C(=O)O)CC[C@@H](C(=O)O)C1,inactive
3,C[As](C)SC[C@H](NC(=O)CC[C@H](N)C(=O)O)C(=O)NCC(=O)O,inactive
4,CC1C(=O)OC2CCN3CC=C(COC(=O)C(C)(O)C1(C)O)C23 (centres undefined),inactive
5,c1ccc2c(c1)[nH]c1cnccc12,inactive
6,Cc1cc2c(C(C)C)c(O)c(O)c(C=O)c2c(O)c1-c1c(C)cc2c(C(C)C)c(O)c(O)c(C=O)c2c1O,inactive
7,CC[n+]1c(-c2ccccc2)c2cc(N)ccc2c2ccc(N)cc21.[Br-],inactive
8,C=C[C@H]1CN2CC[C@@H]1C[C@@H]2CO,inactive
9,CN1CCN([C@@H](CN)c2ccc3c(c2)OCO3)CC1,inactive
10,CCCCCCCCCCCCCCCC[n+]1ccccc1.[Cl-],inactive
11,CC(C)C[C@@H]1C(=O)N2CCC[C@@H]2[C@]2(O)O[C@@](NC(=O)[C@@H]3C=C4c5cccc6[nH]c(Br)c(c56)C[C@@H]4N(C)C3)(C(C)C)C(=O)N12,inactive
12,O[C@H]1[C@H](O)[C@@H](O)CN2CC[C@H](O)[C@H]12,inactive
13,O=C1C[C@@H](CO)CN1,inactive
14,CC(C)[C@H]1CNC(=O)C1,inactive
15,C#CCOS(=O)OC1CCCCC1Oc1ccc(C(C)(C)C)cc1 (centres undefined),inactive
16,O=[N+]([O-])c1ccc(O)c([N+](=O)[O-])c1,active
17,CNC(=O)Oc1ccc2c(c1)[C@]1(C)CCN(C)[C@@H]1N2C.CNC(=O)Oc1ccc2c(c1)[C@]1(C)CCN(C)[C@@H]1N2C.O=S(=O)(O)O,inactive
18,Cc1cc(O)c2c(=O)c3c(O)cc(O)c4c5c(O)cc(O)c6c(=O)c7c(O)cc(C)c8c1c2c(c34)c(c78)c65,inactive
19,COC(N)=O,inactive
